# Results from ChEMBL document CHEMBL4888484, “Replenishing the malaria drug discovery pipeline: Screening and hit evaluation of the MMV Hit Generation Library 1 (HGL1) against asexual blood stage Plasmodium falciparum ,using a nano luciferase reporter read-out” (2022).
# Among all 150,000 compounds or so, about 540 (0.36%) showed an effect of 50% or more. The list shows a part of the results.
# Test system: Plasmodium falciparum
# Experiment: Primary screen in NF54 nanoGlo assay, in single point, at 2uM, 72h; a lower Z score goes with more inhibition
# Format: functional, Erythrocyte
# Details: timepoint 72 hour
Structure (SMILES),% Inhibition [%],Z score
Cc1cccc(CN2CCN(CC3CCCCC3)[C@@H](CCO)C2)n1,-6,0.88
CCCC[C@H](NC(=O)CNc1ccc(F)cc1)c1cccnc1,-11,2.02
COC(=O)c1cccc2c1OCCN2C(=O)c1csnc1C,-8,1.26
CCn1ncnc1CN[C@@H](C)c1nncn1CCOC,-1,0.11
Cc1n[nH]c2c1[C@H](c1cc(C(C)C)no1)CC(=O)N2,-13,1.7
CCCC1(CCC)NC(=O)N(Cc2nc(N)nc(N(C)C)n2)C1=O,-9,1.1
N#Cc1ccnc(O[C@H]2CCCN(C(=O)COc3cccc(C(F)(F)F)c3)C2)c1,-6,0.97
Cc1nc(C(C)(C)NCC#N)sc1C,-9,0.92
CC(C)(C)OC(=O)[C@@H](NCc1ccc(F)cc1)c1ccccc1,-19,2.52
CS(=O)(=O)N1CCN(c2nc(-c3ccsc3)cs2)CC1,-10,1.35
O=C(CCC(=O)c1ccc2c(c1)OCCO2)NCc1nnc2ccccn12,-9,1.01
O=C(NS(=O)(=O)C1C[C@@H]2CC[C@H]1C2)c1ccnn1CC(F)F (stereo partly drawn),-1,0.24
CC(C)(C)OC(=O)Cc1cccc(NCc2c[nH]nc2-c2cccnc2)c1,-5,0.54
O=C(CC(F)(F)C(F)F)c1cccnc1,-38,4.41
O=C(c1ccc(=O)[nH]c1)N1CCC(COCc2ccccc2)CC1,-10,1.39
CN(C)c1ccc(-c2c3c([nH]c(=O)c2C#N)CCCC3)cc1,-15,1.91
CC(C)c1nc(N2C3CCC2CC(O)C3)c2cc[nH]c2n1 (stereo not drawn),0,0.05
Cn1ccc(NC(=O)CNC(=O)c2cccc(OC(F)F)c2)n1,3,-0.43
O=C(NCc1ccco1)/C(=C/c1cn(-c2ccccc2)nc1-c1ccc(F)cc1)NC(=O)c1ccc(Cl)cc1Cl,-15,1.79
Cc1cc(CS(=O)(=O)Cc2ccc3c(c2)CCC3)no1,5,-0.79
CCC=C(C)C(=O)NCc1ccccn1,-1,0.08
O=C(CCc1cnccn1)NC[C@@H]1COc2ccccc2C1,-10,0.97
COc1ccc(-n2c(Cc3nnn[nH]3)n[nH]c2=O)c(C)c1,-5,0.94
Cc1ccc(-c2cc(C(=O)N3CC(OCc4ccc(F)cc4)C3)[nH]n2)s1,-21,2.56
